In all, about 310,000 compounds went through this assay and about 14,000 (4.5%) showed an effect of 50% or more. Effects have a minus sign here. The list shows a part of the results.
biological target: human ether-à-go-go-related gene (hERG) potassium channel (human, UniProt Q12809); test: primary screen, population patch clamp on CHO cells stably expressing hERG
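Further: peak tail current of the secondary pulse compared with the same well before compound.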

Chain of human ether-à-go-go-related gene (hERG) potassium channel (Q12809 whole entry, looked up): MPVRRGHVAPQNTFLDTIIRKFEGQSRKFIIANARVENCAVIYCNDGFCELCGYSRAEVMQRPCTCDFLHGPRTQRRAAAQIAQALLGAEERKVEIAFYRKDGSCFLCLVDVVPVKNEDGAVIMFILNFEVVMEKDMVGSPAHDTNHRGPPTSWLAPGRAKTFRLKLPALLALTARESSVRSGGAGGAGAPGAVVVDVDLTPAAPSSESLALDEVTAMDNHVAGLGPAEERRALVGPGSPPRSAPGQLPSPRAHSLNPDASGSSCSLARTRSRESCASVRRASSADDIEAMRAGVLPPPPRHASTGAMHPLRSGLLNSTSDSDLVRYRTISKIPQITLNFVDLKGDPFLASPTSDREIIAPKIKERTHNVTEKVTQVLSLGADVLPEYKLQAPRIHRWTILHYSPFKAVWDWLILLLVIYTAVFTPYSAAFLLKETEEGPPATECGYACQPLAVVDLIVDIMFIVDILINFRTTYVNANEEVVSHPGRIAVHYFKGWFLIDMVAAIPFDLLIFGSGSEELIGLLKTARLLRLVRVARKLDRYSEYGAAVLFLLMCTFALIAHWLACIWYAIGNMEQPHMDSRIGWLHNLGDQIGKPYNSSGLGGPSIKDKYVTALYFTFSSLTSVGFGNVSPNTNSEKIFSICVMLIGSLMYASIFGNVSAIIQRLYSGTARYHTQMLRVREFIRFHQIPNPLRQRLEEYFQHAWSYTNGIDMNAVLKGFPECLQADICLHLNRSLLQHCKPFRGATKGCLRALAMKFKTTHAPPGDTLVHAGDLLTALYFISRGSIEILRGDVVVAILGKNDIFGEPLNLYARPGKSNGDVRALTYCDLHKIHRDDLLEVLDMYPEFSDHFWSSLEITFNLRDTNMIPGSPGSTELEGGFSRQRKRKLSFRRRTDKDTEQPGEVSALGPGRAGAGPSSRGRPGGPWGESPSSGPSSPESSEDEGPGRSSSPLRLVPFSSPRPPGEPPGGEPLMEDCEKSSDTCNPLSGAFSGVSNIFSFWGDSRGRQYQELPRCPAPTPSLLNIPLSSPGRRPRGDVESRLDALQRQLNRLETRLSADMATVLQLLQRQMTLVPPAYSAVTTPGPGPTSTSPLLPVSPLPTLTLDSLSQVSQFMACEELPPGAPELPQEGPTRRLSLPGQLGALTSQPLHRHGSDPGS

Point of comparison: `Cc1ccc(C2=N/C(=C\N(C)C)C(=O)O2)cc1`, “hERG current change (%, negative = inhibition) at 10uM” value -0.834%. Against it:
- CCCCNC(=O)C(=O)N/N=C/c1ccc(OCC(=O)Nc2cccc(OC)c2)c(OC)c1 — lower, -11.4%
- O=C(NCc1ccccc1)c1nc[nH]c1C(=O)N1CCc2ccccc2C1 — higher, 0.997%
- CC1CCCCN1S(=O)(=O)c1ccc(NC(=O)c2cccs2)cc1 (centres unmarked) — lower, -11.3%
- O=c1[nH]c([S-])nc2sc3c(c12)CCCC3.[K+] — higher, 3.14%
- CCOc1cccc(C(=O)NCc2ccccc2)c1 — higher, 15.4%
- O=C(Nc1cccn(Cc2c(Cl)cccc2Cl)c1=O)C1CC1 — higher, 15.8%
- COC(=O)C1C(=O)C2=C(CC1C)NC(C)=C(C(=O)OC(C)C)C2c1ccc(C)o1 (centres unmarked) — lower, -2.46%
- O=C(CNC(=O)Cc1ccccc1)NCC(=O)OCC(=O)c1cccc2ccccc12 — lower, -28%
- CNC1=C([N+](=O)[O-])CC([N+](=O)[O-])=C(N2CCNCC2)N1C — higher, 8.57%
- O=C(Nc1c(C(=O)N2CCC(N3CCCCC3)CC2)oc2ccccc12)c1c(F)cccc1F — lower, -51.7%
- Cc1nn(Cc2ccc(C(=O)N3CCOCC3)o2)c(C)c1Br — higher, 9.37%
- CC(OC(=O)c1cc2sccc2n1C)C(=O)NCC1CCCO1 (centres unmarked) — higher, 0.798%
- COc1ccc(S(=O)(=O)NCC(=O)NCc2cc(=O)n(C)c(=O)n2C)cc1C — higher, 5.78%
- O=C(NC1(C(F)(F)F)NC(=O)N(Cc2ccccc2)C1=O)c1cccnc1 (centres unmarked) — higher, 10.4%
- Cc1ccc(C(=O)N2CCCC(N(C)Cc3ccccc3)C2)s1 (centres unmarked) — lower, -36.8%
- O=S(=O)(c1ccc2c(c1)OCCO2)N1CCC(c2nc3ccccc3s2)CC1 — higher, 4.67%
- Nc1nc(-c2ccccc2)[nH]c(=O)c1N — higher, 6.04%
- COc1cccc(-c2nnc3sc(C4CCCCC4)nn23)c1 — lower, -45.2%
- Cc1ccc(S(=O)(=O)N=Nc2c(O)[nH]c3ccccc23)cc1C — higher, 15.3%
- COc1ccc(C2SCCN2C(=S)Nc2ccc(Cl)cc2)cc1 (centres unmarked) — lower, -3.49%
- CC(=O)O.Fc1ccc(NC(=S)Nc2cccnc2)cc1 — lower, -1.99%
- CSc1nnc(C)c(=O)n1COC(=O)/C=C/c1ccc2c(c1)OCO2 — lower, -24.3%
- Clc1ccc2c(NCc3ccccc3)ccnc2c1 — lower, -45.5%
- CCOC(=O)CSc1nnc(CNC(=O)c2cccs2)n1-c1cc(C)ccc1C — lower, -5.19%
- COc1ccc(NC(=O)CSc2nnc(Cc3ccc(C)cc3)c(=O)n2N)cc1OC — higher, 1.64%
- NS(=O)(=O)c1ccc(N=Nc2c[nH]c(=O)c(O)c2)cc1 — lower, -6.37%
- CCOc1ccc(N(CC(=O)NC2CCC(C)CC2)S(=O)(=O)c2c(C)noc2C)cc1 (centres unmarked) — higher, 14.4%
- COCCNC(=O)C12CC3CC(CC(Cl)(C3)C1)C2 — higher, 19.2%
- O=S(=O)(/N=C(\[O-])C[n+]1ccccc1)c1ccc(Cl)cc1 — higher, 13.5%
- O=C(CN1CCC(c2nc3ccccc3[nH]2)CC1)NCc1ccc2c(c1)OCO2 — lower, -84.3%
- O=C(O)c1ccc(NC(=O)c2cc3ccccc3o2)cc1 — higher, 15.9%
- C=CCN1C(=O)C(O)(CC(=O)c2ccc(N)cc2)c2ccccc21 (centres unmarked) — higher, 11.8%
- Clc1cccc(C[n+]2cc(-c3ccccc3)n3c2CCC3)c1.[Br-] — lower, -25.7%
- O=C(CC1S/C(=N/N=C/c2c[nH]c3ccc(OCc4ccccc4)cc23)NC1=O)Nc1ccccc1 (centres unmarked) — higher, -0.703%
- Cc1noc(NC(=O)c2ccc(Cl)cc2)c1Cl — higher, 24.6%
- Cc1ccc(C(=O)c2c3ccc(N)cc3nn2CCC(N)=O)cc1 — higher, 13.9%
- Cc1ccnc2nc(C(=O)OCC(=O)NCCc3ccccc3)nn12 — higher, 16.6%
- O=C(CN1CCCC1)Nc1nnc(-c2cccs2)s1 — lower, -5.47%
- CNC(=O)C(=O)NCC1OCCCN1S(=O)(=O)c1ccc2c(c1)OCCO2 (centres unmarked) — lower, -7.36%
- COc1cc(NC(=O)c2ccccc2Cl)ccc1NC(=O)c1ccco1 — lower, -8.94%
- O=S(=O)(c1ccc(-c2n[nH]c(=S)o2)cc1)N1CCCC1 — higher, 42.4%
- CN=C(C)C1=C(O)C(C(=O)OC)C(C)(C)CC1=O (centres unmarked) — lower, -6.03%
- CC(=O)N1CCN(S(=O)(=O)c2cccc(C(=O)Nc3cc(C(F)(F)F)ccc3N3CCOCC3)c2)CC1 — lower, -42.3%
- COc1ccc(C(CC(=O)N2CCOCC2)c2c(OC)cc(OC)c3ccc(=O)oc23)cc1 (centres unmarked) — lower, -3.96%
- COC(=O)CSc1ncc(C#N)c(N)n1 — lower, -13%
- O=C(Nc1nc(-c2ccc(Oc3ccccc3)cc2)cs1)C1=COCCO1 — lower, -14.3%
- CCN(CC)c1cc(Cl)nc(N)n1 — higher, 15.3%
- Cc1ccc(Cn2c(C3CCCN3c3nc(-c4ccc(F)cc4)cs3)nc3cc(C(=O)NCCCO)ccc32)cc1 (centres unmarked) — higher, 2.29%
- Cc1cccc(/N=C/c2nc(-c3ccccc3Br)oc2O)n1 — higher, 15.8%
- CCN(CC)S(=O)(=O)c1ccc(NC(=O)COc2c(OC)cccc2OC)cc1 — higher, 16.8%
- CCC1(CC)Nc2ccccc2C(=O)N1c1ccc(NC(C)=O)cc1 — higher, 0.446%
- CCOC(=O)N1CCN(C(=O)CS(=O)(=O)c2cn(Cc3cccc(F)c3)c3ccccc23)CC1 — higher, 3.52%
- C/C(CC(=O)Nc1ccc(N(C)C)cc1)=N\NC(=O)c1ccc(F)cc1 — higher, 0.609%
- CCN(CC)c1ccc(C(=O)N/N=C(\C)c2ccc(OC)c(OC)c2)cc1 — higher, 3.53%
- O=C(NCc1ccccn1)C(=O)NCC1OCCN1S(=O)(=O)c1ccc([N+](=O)[O-])cc1 (centres unmarked) — lower, -31.9%
- Cc1nc2c(=O)[nH]c(=S)n(C)c2nc1C — higher, 14.6%
- COc1ccc(/C=C/C(=O)Oc2cccc(/C=N/NC(=O)c3cccc(F)c3)c2)cc1 — lower, -22.5%
- CCOC(=O)C1(C)/C(=N/Nc2ccccc2Cl)C(=O)C(=O)N1c1ccccc1 (centres unmarked) — higher, 6.03%
- CCN(CC)CCNc1c2c(c(C#N)c3nc4ccccc4n13)CCCC2 — lower, -45.3%
- COc1ccc(-c2[nH]ncc2CN(C)Cc2cc(C)[nH]n2)c(F)c1 — higher, 12%
- CCC/C(C)=N\Nc1nc2c(c(=O)n(C)c(=O)n2C)n1C — higher, 7.47%
- Cc1cn(COC/C=C/c2ccccc2)c(=O)[nH]c1=O — higher, 4.2%
- S=c1[nH]nc(-c2cccnc2)n1/N=C/c1ccccc1 — higher, 11.7%
- COc1ccc(-n2c(SCC(=O)N3CCOCC3)nc(O)c(Cc3ccccc3)c2=O)cc1 — higher, 7.78%
- Cc1ccc(NC(=O)Nc2ccc3c(c2)nnn3C)cc1C — higher, 27.4%
- O=C(Nc1c(F)cc(F)cc1Br)c1cc(S(=O)(=O)N2CCN(c3ccccn3)CC2)ccc1F — lower, -15.9%
- O=C(CCN1N=C(c2ccccc2)CCC1=O)NCC1COc2ccccc2O1 (centres unmarked) — lower, -14%
- N#Cc1ccc(/C=N/NC(=O)c2ccccc2F)cc1 — higher, 6.52%
- Cc1nnn(-c2nonc2N)c1C(=O)N/N=C/c1ccccc1O — higher, 9.64%
- CCC1CCCCN1C(=O)CSc1nc2c(c(=O)n1C)SC(C)C2 (centres unmarked) — lower, -22.8%
- O=C(Nc1ccc2c(c1)OCO2)N1CCCc2ccccc21 — higher, 11.7%
- CC(=O)NCC(=O)OCC(=O)N1c2ccccc2Sc2ccccc21 — higher, 16.4%
- O=C(Nc1ccc(CN2CCOCC2)cc1)c1ccco1 — higher, 5.32%
- CC1=C(C(=O)OC(C)C)[C@@H](c2ccc(C)o2)NC(=O)N1 — higher, 24.6%
- CCOc1ccc(N(CC(=O)NC2CCCCC2)C(=O)CCC(=O)Nc2nccs2)cc1 — lower, -11.4%
- COc1ccc(OC)c(S(=O)(=O)N(C)CC(=O)N2CCN(c3cccc(Cl)c3)CC2)c1 — lower, -39.5%
- Cc1cc(C(=O)NCC2COc3ccccc3O2)c2ccccc2n1 (centres unmarked) — higher, 10.3%
- CCC(CC)C(=O)Nc1ccc(Cl)c(Cl)c1 — lower, -11.7%
- Cc1ccc(NC(NC(=O)c2cccs2)C(Cl)(Cl)Cl)cc1C (centres unmarked) — lower, -4.07%
- CC(O)CNc1nc2ccccc2n1CC(=O)NCC(F)(F)F (centres unmarked) — higher, 13.9%
- CCOc1ccccc1NC(=O)COC(=O)C1CCC1 — lower, -17%
- COC(=O)c1[nH]c2c(c1C)C(=O)CC(c1cc(OC)c(OC)c(OC)c1)C2 (centres unmarked) — lower, -3.2%
- Nc1c(Cl)cnn(-c2ccccc2)c1=O — higher, 3.05%
- CC1=C(C(=O)OCc2ccccc2)C(c2cccc([N+](=O)[O-])c2)NC(=O)N1 (centres unmarked) — higher, 18.1%
- O=C(Cn1nc(-c2ccccc2)c2ccccc2c1=O)Nc1ccc(F)cc1 — lower, -2.75%
- CNC(=O)CC1C(=O)N(Cc2ccccc2)C(=S)N1NC(=O)c1cccc(F)c1 (centres unmarked) — higher, 6.11%
- Cc1ccc(NC(=O)CN2C(=O)c3ccccc3C2=O)nc1 — higher, 6.21%
- Cc1c(NC(=O)CN2C(=O)NC(C)(c3ccccc3)C2=O)c(=O)n(-c2ccccc2)n1C (centres unmarked) — higher, 3.34%
